Data from the supplement of paper PMC12067230.
This is a noisy data set.

experiment: amyloid nucleation score relative to library mode (yeast Sup35 reporter selection) (log enrichment difference); higher = more amyloid nucleation; sequences are the first 22 residues of the Bri2 peptide extended by up to 12 random residues; details: random library (experiment): 1;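 active = nucleation score significantly above 0 at FDR 0.05; inactive = not significantly above 0 or absent from output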
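Note: [psi-pin-] Saccharomyces cerevisiae expressing SupN fusions, induced by 100 µM Cu2SO4, selected 7 d at 30 °C without adenine and uracil, scored by deep sequencing of output versus input.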

Sequence	amyloid nucleation score
EASNCFAIRHFENKFAVETLICARAR	inactive
EASNCFAIRHFENKFAVETLICRLTWQFYGLVWG	inactive
EASNCFAIRHFENKFAVETLICNRPIKCMGCWGG	inactive
EASNCFAIRHFENKFAVETLICHGCAELAIGGLG	inactive
EASNCFAIRHFENKFAVETLICVLMG	inactive
EASNCFAIRHFENKFAVETLICPSSKRTPWCVGT	-0.0572
EASNCFAIRHFENKFAVETLICTEWTCRLTKILD	0.376
EASNCFAIRHFENKFAVETLICNTLCIGDPSCLR	7.73
EASNCFAIRHFENKFAVETLICFCMDRHERFMYG	3.21
EASNCFAIRHFENKFAVETLICEGSGLPVLGWCD	inactive
EASNCFAIRHFENKFAVETLICAFPCMFIMGTRH	2.25
EASNCFAIRHFENKFAVETLICPMYRCSN	inactive
EASNCFAIRHFENKFAVETLICYCGVGTRVPIVM	inactive
EASNCFAIRHFENKFAVETLICPAYRESGSKKRA	inactive
EASNCFAIRHFENKFAVETLICRAVLFQPSPV	inactive
EASNCFAIRHFENKFAVETLICLSHLMGEKTAS	inactive
EASNCFAIRHFENKFAVETLICATCSQFMGTSCS	4.51
EASNCFAIRHFENKFAVETLICPNSLHAFWSFSY	inactive
EASNCFAIRHFENKFAVETLICNSRRPFILLELM	inactive
EASNCFAIRHFENKFAVETLICAQ	-0.273
EASNCFAIRHFENKFAVETLICGMAEGLR	-0.405
EASNCFAIRHFENKFAVETLICGDY	inactive
EASNCFAIRHFENKFAVETLICVVLRRAGYAFRK	inactive
EASNCFAIRHFENKFAVETLICDSQWRKESLSWE	inactive
EASNCFAIRHFENKFAVETLICYKDKELPRTLEY	inactive

Sequence	amyloid nucleation score
EASNCFAIRHFENKFAVETLICMTTFLLRARGRV	inactive
EASNCFAIRHFENKFAVETLICILAWVGISSSQR	-0.203
EASNCFAIRHFENKFAVETLICRHWRNYAPRGTR	inactive
EASNCFAIRHFENKFAVETLICMYFCRSVAHGLG	inactive
EASNCFAIRHFENKFAVETLICFAM	5.85
EASNCFAIRHFENKFAVETLICNKVQSWGMSGRV	inactive
EASNCFAIRHFENKFAVETLICKYLNNTVFVPWR	inactive
EASNCFAIRHFENKFAVETLICGPRTIRLRWPLK	inactive
EASNCFAIRHFENKFAVETLICEATVYG	inactive
EASNCFAIRHFENKFAVETLICVGGPGHSGVPPS	inactive
EASNCFAIRHFENKFAVETLICRDKGSLITFFWA	6.83
EASNCFAIRHFENKFAVETLICVAAQSV	-0.0479
EASNCFAIRHFENKFAVETLICPSRSGMLMVFVG	inactive
EASNCFAIRHFENKFAVETLICFIT	8.09
EASNCFAIRHFENKFAVETLICGLQLSATDTKNG	inactive
EASNCFAIRHFENKFAVETLICYYDNLVLFVGAA	-0.302
EASNCFAIRHFENKFAVETLICDSCNYLLGLR	inactive
EASNCFAIRHFENKFAVETLICVFY	5.05
EASNCFAIRHFENKFAVETLICEATGRYQLRWTE	inactive
EASNCFAIRHFENKFAVETLICFLWVVRSGAQMG	inactive
EASNCFAIRHFENKFAVETLICYWCVC	7.33
EASNCFAIRHFENKFAVETLICKVVTLSLQMKGV	inactive
EASNCFAIRHFENKFAVETLICLKKVLRSQDHGK	-0.601
EASNCFAIRHFENKFAVETLICYHAFPPGHHLL	inactive

same assay, conditions: random library (experiment): 2

Sequence	amyloid nucleation score
EASNCFAIRHFENKFAVETLICFSFVSSPDDRFL	8.14
EASNCFAIRHFENKFAVETLICVFTFVCKAKSRL	inactive
EASNCFAIRHFENKFAVETLICYNVSYLAGIIRG	inactive
EASNCFAIRHFENKFAVETLICGWKGSSNRWFLC	1.95
EASNCFAIRHFENKFAVETLICFYWNSIRRGGQY	4.43
EASNCFAIRHFENKFAVETLICTGYSVHGDTARV	inactive
EASNCFAIRHFENKFAVETLICVYWPENLHYLVC	inactive
EASNCFAIRHFENKFAVETLICASYIVMRNSRGH	inactive
EASNCFAIRHFENKFAVETLICVSRDNNLFAFRG	6.21
EASNCFAIRHFENKFAVETLICALFNMSRVSSTV	5.65
EASNCFAIRHFENKFAVETLICTSLFFHLRIFVV	inactive
EASNCFAIRHFENKFAVETLICDVH	inactive
EASNCFAIRHFENKFAVETLICKIRVFNGVVILQ	4.84
EASNCFAIRHFENKFAVETLICLLLVKQSWGWNS	-0.191
EASNCFAIRHFENKFAVETLICTP	inactive
EASNCFAIRHFENKFAVETLICYKWALLDAFCGI	inactive
EASNCFAIRHFENKFAVETLICCEVQQLRDEAMM	-0.0677
EASNCFAIRHFENKFAVETLICFSMLCVNSFVCV	2.61
EASNCFAIRHFENKFAVETLICYECPQYPSLSAK	inactive

Sequence	amyloid nucleation score
EASNCFAIRHFENKFAVETLICGNCNRIGNVG	4.91
EASNCFAIRHFENKFAVETLICKTFNCWECMRTG	8.66
EASNCFAIRHFENKFAVETLICPYGTGSL	inactive
EASNCFAIRHFENKFAVETLICVTHICRTQLWSS	3.4
EASNCFAIRHFENKFAVETLICYLLDSNTDGMWC	inactive
EASNCFAIRHFENKFAVETLICGLIMRGGKDRRW	inactive
EASNCFAIRHFENKFAVETLICYSKQFQVFRSVR	inactive
EASNCFAIRHFENKFAVETLICCLFVCRSMVRVG	inactive
EASNCFAIRHFENKFAVETLICGGLC	4.92
EASNCFAIRHFENKFAVETLICRHVL	inactive
EASNCFAIRHFENKFAVETLICFGMRLNVPGFVP	1.06
EASNCFAIRHFENKFAVETLICVFLVVS	4.34
EASNCFAIRHFENKFAVETLICIFRLHYRLIAVH	inactive
EASNCFAIRHFENKFAVETLICLRVVFGIERMVM	inactive
EASNCFAIRHFENKFAVETLICFGGQYLVLLPCR	inactive
EASNCFAIRHFENKFAVETLICQHIVQEGWAGSL	2.47
EASNCFAIRHFENKFAVETLICPCVSNFSLKLCL	5.19
EASNCFAIRHFENKFAVETLICCCTSVNILVYLT	4.78
EASNCFAIRHFENKFAVETLICLLTRDRSHSFRG	2.27

same assay, conditions: random library (experiment): 3

Sequence	amyloid nucleation score
EASNCFAIRHFENKFAVETLICVRRVF	inactive
EASNCFAIRHFENKFAVETLICLSCLDEMFAF	4.89
EASNCFAIRHFENKFAVETLICGMQLQDVGSSRK	inactive
EASNCFAIRHFENKFAVETLICPDFVADMICVI	inactive
EASNCFAIRHFENKFAVETLICPQKGVGRNRSHR	inactive
EASNCFAIRHFENKFAVETLICNVEW	4.43
EASNCFAIRHFENKFAVETLICVLRDLLNDRICR	4.31
EASNCFAIRHFENKFAVETLICQIMLLRSFFRVA	inactive
EASNCFAIRHFENKFAVETLICYETSSCGTKYCF	1.15
EASNCFAIRHFENKFAVETLICLHAKKVIVARDP	inactive
EASNCFAIRHFENKFAVETLICYLIVPKMPWGYG	inactive
EASNCFAIRHFENKFAVETLICFVYLGC	3.57
EASNCFAIRHFENKFAVETLICRTRTVVLTSFYN	inactive
EASNCFAIRHFENKFAVETLICMREVNISFLSRP	5.18
EASNCFAIRHFENKFAVETLICTESLDCCVMVPM	inactive
EASNCFAIRHFENKFAVETLICRDRKEWVIQNRY	2.5
EASNCFAIRHFENKFAVETLICFCDLHELTKQNS	8.09

Sequence	amyloid nucleation score
EASNCFAIRHFENKFAVETLICYPFVPVS	0.475
EASNCFAIRHFENKFAVETLICTRTNTSCTFGSA	inactive
EASNCFAIRHFENKFAVETLICLTSRAMWDPLCA	inactive
EASNCFAIRHFENKFAVETLICLRRAVR	inactive
EASNCFAIRHFENKFAVETLICLSMIIRLCVSTL	inactive
EASNCFAIRHFENKFAVETLICTWVRWSIGGTRQ	2.88
EASNCFAIRHFENKFAVETLICTRNDIESLLGEK	2.31
EASNCFAIRHFENKFAVETLICCWDHASERIILG	inactive
EASNCFAIRHFENKFAVETLICTRSGIVV	inactive
EASNCFAIRHFENKFAVETLICGTSHWVSLAGYA	inactive
EASNCFAIRHFENKFAVETLICITPGYVE	inactive
EASNCFAIRHFENKFAVETLICMKSSRVSLMKGP	2.65
EASNCFAIRHFENKFAVETLICEMGLPPTATREQ	inactive
EASNCFAIRHFENKFAVETLICLGHTL	inactive
EASNCFAIRHFENKFAVETLICRSGSPWASAMRR	2.26
EASNCFAIRHFENKFAVETLICITLLMLHRVSVP	inactive
